According to the supplement of paper PMC4967469:
By IC50 is meant the dose at which the fit gives 50% viability; a limit (>, <) means that the fit lies beyond the doses tested. AUC is the area under the same curve over the 256-fold range up to the top dose, as a fraction; values near 1 show little effect. For some assays here: A top dose marked as inferred is not printed in the source and was worked back from the curve model. For some assays here: An entry number marks a drug with two screens in the source, which often give different values.

Experiments:
Assay in all cases: Viability of human cancer cell lines after 72 h of drug (GDSC screen)
[1] = compound: CC(=O)O[C@@]12CO[C@@H]1C[C@H](O)[C@@]1(C)C(=O)[C@H](O)C3=C(C)[C@@H](OC(=O)[C@H](O)[C@@H](NC(=O)OC(C)(C)C)c4ccccc4)C[C@@](O)([C@@H](OC(=O)c4ccccc4)[C@H]21)C3(C)C [Docetaxel]; details: top dose 0.0125 µM
Protocol: (§1)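 Human cancer cell lines in 384-well plates, medium with 10% serum, drug for 72 h over a 256-fold dose range (nine 2-fold or five 4-fold steps up to the top dose). Adherent lines were fixed and stained with the nucleic acid dye Syto60, suspension lines read with resazurin; signal relative to control wells, capped at 0 and 100%. One two-parameter sigmoid per drug and line, fitted in a mixed model over all curves with the slope shared within a line.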

[2] = compound: CC1(C)CNc2cc(NC(=O)c3cccnc3NCc3ccncc3)ccc21 [AMG-706]; details: top dose 2 µM; top dose inferred
Protocol: as §1

[3] = compound: CCOc1nc(NC(=O)Cc2cc(OC)ccc2OC)cc(N)c1C#N [JNK Inhibitor VIII]; details: top dose 10 µM; top dose inferred
Protocol: as §1

[4] = compound: CN1CCN(c2ccc([N+](=O)[O-])c3no[n+]([O-])c23)CC1 [NSC-207895]; details: top dose 20 µM; top dose inferred
Protocol: as §1

[5] = compound: COC(=O)[C@H](CCSC)NC(=O)c1ccc(NC[C@@H](N)CS)cc1-c1ccccc1 [FTI-277]; details: top dose 1.024 µM; top dose inferred
Protocol: as §1

[6] = compound: COCC[n+]1c2c(n(Cc3cnccn3)c1C)C(=O)c1ccccc1C2=O [YM155]; details: top dose 5.12 µM
Protocol: as §1

[7] = compound: C[C@]1(O)C[C@@H](c2nc(-c3ccc4ccc(-c5ccccc5)nc4c3)c3c(N)nccn32)C1 [OSI-906]; details: top dose 2.56 µM; top dose inferred
Protocol: as §1

[8] = compound: Cc1ccc(C(=O)N(CCCN)[C@@H](c2nc3cc(Cl)ccc3c(=O)n2Cc2ccccc2)C(C)C)cc1 [SB-715992]; details: top dose 0.128 µM; top dose inferred
Protocol: as §1

[9] = compound: Cc1sc2c(c1C)C(c1ccc(Cl)cc1)=N[C@@H](CC(=O)OC(C)(C)C)c1nnc(C)n1-2 [JQ1]
Protocol: as §1

[10] = compound: O=C(/C=C/c1cccc(S(=O)(=O)Nc2ccccc2)c1)NO [Belinostat]; details: top dose 20 µM; top dose inferred
Protocol: as §1

[11] = compound: c1ccc2c(CCNc3ccc(Nc4ccncc4)cc3)c[nH]c2c1 [JNJ-26854165]; details: top dose 10 µM
Protocol: as §1

[12] = top dose 1 µM, screen: GDSC drug entry 1218, top dose inferred
[13] = top dose 2.56 µM, screen: GDSC drug entry 163

Row | Cell Line | AUC [1] | IC50 [1] [nM] | AUC [2] | IC50 [2] [nM] | AUC [3] | IC50 [3] [nM] | AUC [4] | IC50 [4] [nM] | AUC [5] | IC50 [5] [nM] | AUC [6] | IC50 [6] [nM] | AUC [7] | IC50 [7] [nM] | AUC [8] | IC50 [8] [nM] | AUC [9, 12] | IC50 [9, 12] [nM] | AUC [9, 13] | IC50 [9, 13] [nM] | AUC [10] | IC50 [10] [nM] | AUC [11] | IC50 [11] [nM]
1 | DBTRG-05MG (glioma, adherent) | 0.642 | 2.07 | 0.976 | > 2000 | 0.982 | > 10000 | 0.978 | > 20000 | 0.98 | > 1020 | 0.132 | < 20 | 0.955 | > 2560 | 0.878 | > 128 | 0.974 | > 1000 | 0.843 | 2290 | 0.605 | 2560 | 0.896 | > 10000
2 | DK-MG (glioma, adherent) | 0.899 | > 12.5 | 0.907 | > 2000 | 0.959 | > 10000 | 0.883 | > 20000 | 0.96 | > 1020 | 0.077 | < 20 | 0.846 | > 2560 | 0.974 | > 128 | 0.848 | > 1000 | 0.923 | > 2560 | 0.613 | 2970 | 0.825 | > 10000
3 | DoTc2-4510 (cervix, adherent) | 0.814 | 6.34 | 0.984 | > 2000 | 0.986 | > 10000 | 0.879 | 18800 | 0.986 | > 1020 | 0.028 | < 20 | 0.906 | > 2560 | 0.951 | > 128 | 0.987 | > 1000 | 0.462 | 127 | 0.491 | 1180 | 0.909 | > 10000
4 | ECC10 (stomach, suspension) | 0.799 | 6.3 | 0.972 | > 2000 | 0.982 | > 10000 | 0.819 | 12000 | 0.947 | > 1020 | 0.18 | 32.9 | 0.811 | 1440 | 0.928 | > 128 | 0.562 | 93.3 | 0.617 | 341 | 0.587 | 2180 | 0.865 | 9520
5 | EFM-192A (breast, adherent) | 0.891 | > 12.5 | 0.986 | > 2000 | 0.986 | > 10000 | 0.973 | > 20000 | 0.822 | 687 | 0.104 | < 20 | 0.883 | > 2560 | 0.953 | > 128 | 0.983 | > 1000 | 0.705 | 649 | 0.6 | 2420 | 0.92 | > 10000
6 | EFO-21 (ovary, adherent) | 0.836 | > 12.5 | 0.964 | > 2000 | 0.97 | > 10000 | 0.978 | > 20000 | 0.98 | > 1020 | 0.052 | < 20 | 0.971 | > 2560 | 0.814 | 112 | 0.967 | > 1000 | 0.708 | 806 | 0.666 | 4450 | 0.844 | > 10000
7 | EFO-27 (ovary, adherent) | 0.573 | 1.3 | 0.977 | > 2000 | 0.98 | > 10000 | 0.922 | > 20000 | 0.972 | > 1020 | 0.06 | < 20 | 0.981 | > 2560 | 0.903 | > 128 | 0.973 | > 1000 | 0.63 | 401 | 0.403 | 634 | 0.897 | > 10000
8 | EGI-1 (biliary tract, adherent) | 0.735 | 4.55 | 0.982 | > 2000 | 0.964 | > 10000 | 0.973 | > 20000 | 0.969 | > 1020 | 0.166 | 21.1 | 0.906 | > 2560 | 0.884 | > 128 | 0.98 | > 1000 | 0.873 | > 2560 | 0.695 | 5240 | 0.92 | > 10000
9 | EN (endometrium, adherent) | 0.827 | 10.6 | 0.983 | > 2000 | 0.974 | > 10000 | 0.875 | > 20000 | 0.983 | > 1020 | 0.049 | < 20 | 0.976 | > 2560 | 0.923 | > 128 | 0.982 | > 1000 | 0.978 | > 2560 | 0.452 | 895 | 0.907 | > 10000
10 | ESS-1 (endometrium, adherent) | 0.671 | 2.21 | 0.98 | > 2000 | 0.982 | > 10000 | 0.679 | 3730 | 0.986 | > 1020 | 0.02 | < 20 | 0.988 | > 2560 | 0.888 | 119 | 0.989 | > 1000 | 0.756 | 794 | 0.353 | 512 | 0.893 | –
11 | EW-7 (Ewing sarcoma, semi-adherent) | 0.966 | > 12.5 | 0.99 | > 2000 | 0.989 | > 10000 | 0.927 | > 20000 | 0.987 | > 1020 | 0.019 | < 20 | 0.542 | 205 | 0.798 | 52.6 | 0.988 | > 1000 | 0.95 | > 2560 | 0.296 | 362 | 0.946 | > 10000
